This is one part of the list.
Molecular target: T1, OsWOX13 (Oryza sativa, UniProt Q5QMM3 1-267)
T1 sequence: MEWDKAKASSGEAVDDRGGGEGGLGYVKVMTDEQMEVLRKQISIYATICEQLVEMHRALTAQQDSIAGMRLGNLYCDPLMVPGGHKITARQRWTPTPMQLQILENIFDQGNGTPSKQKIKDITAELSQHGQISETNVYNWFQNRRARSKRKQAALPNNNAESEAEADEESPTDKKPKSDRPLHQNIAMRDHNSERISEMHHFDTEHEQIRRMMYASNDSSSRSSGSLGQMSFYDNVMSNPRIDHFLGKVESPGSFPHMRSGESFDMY
Experiment: protein-binding microarray (RPBM); PBS, 2% BSA, 51.3 ng/ul salmon testes DNA, 50 uM zinc acetate, 200 nM TF, 25 C, 1 h; high values mean tight binding
Settings: protein: recombinant; tags: N-terminal polyhistidine and DsRed monomer fusion (pET32a); label: CyDye5-dUTP incorporated in the synthesized complementary strand; 3' TTTTT single-stranded linker to array surface; dsDNA, one strand shown
Summary of the method: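 An Axon 4000B scanner gave the binding signal as per-feature fluorescence intensity in arbitrary units. This followed washing of a custom Agilent array that had been incubated for 1 h at 25 °C with 200 nM protein in PBS, 2% BSA, salmon testes DNA and 50 µM zinc acetate. The proteins were transcription factors fused at the N-terminus to polyhistidine and DsRed, expressed in E. coli BL21-CodonPlus and purified on Ni–NTA.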

Compared with “CTAGGGTAAAATCACAATTGAGATTGAAAGCTGGGGTATACGGAGTCACCTAGTGCAG”, “ATGATAGACAGATAATTCTACAAACAAATTCGGATTTCTTCGGAGTCACCTAGTGCAG” is higher in binding signal: 7170 fluorescence intensity (a.u.) for the first, 35000 fluorescence intensity (a.u.) for the second.

First: AGTTAGCTGTAATTACATCATGATTGTACTGTATTTACGTCGGAGTCACCTAGTGCAG
Second: AGTGATAGATTTACACAGCTTGGTTATTATCTACTTCCTTCGGAGTCACCTAGTGCAG
The binding signal of the first is lower: 29300 fluorescence intensity (a.u.) for the first, 33600 fluorescence intensity (a.u.) for the second.

Going from “ATGATTTATTTTGCAACATTTTCTTTTATATCGCTTAGGACGGAGTCACCTAGTGCAG” to “ATGTCGTCATTATGTGATTAACACAAGAACGCTTGTTCGTCGGAGTCACCTAGTGCAG”, the binding signal falls from 11900 fluorescence intensity (a.u.) to 5300 fluorescence intensity (a.u.).

First: TGTGATTGTGATCCATTGATTAGGTCAAGCATCGCCTTGACGGAGTCACCTAGTGCAG
Second: GACTGATGGACACACCACAAGCGCCGGGTCAACCCGCGGTCGGAGTCACCTAGTGCAG
The binding signal of the first is higher: 43200 fluorescence intensity (a.u.) for the first, 13500 fluorescence intensity (a.u.) for the second.

Compared with “AATTTAATCTTTAATTAATTTATTTCTCGCCTCTCTTAACCGGAGTCACCTAGTGCAG”, “GTCAAACCTTTAAATTGACCTCACATGCATGCGTATAGGTCGGAGTCACCTAGTGCAG” is lower in binding signal: 4610 fluorescence intensity (a.u.) for the first, 3330 fluorescence intensity (a.u.) for the second.

Going from “TTGGTTCAGATTGATTTGCTGCAAGTGCAAACCTGTTCTTCGGAGTCACCTAGTGCAG” to “CTGCTTTAATTAGTTGAGATGAACGTAGAGAATGGATCCTCGGAGTCACCTAGTGCAG”, the binding signal falls from 36100 fluorescence intensity (a.u.) to 9150 fluorescence intensity (a.u.).

Compared with “AACACTGGTGATTTGATTAGGATTTGCATGCATCCCTGTACGGAGTCACCTAGTGCAG”, “CACTAGTGATTAGCGCCACACGCACGAACTCCATCCACACCGGAGTCACCTAGTGCAG” is lower in binding signal: 28900 fluorescence intensity (a.u.) for the first, 18000 fluorescence intensity (a.u.) for the second.

First: ACTGATTTGTTTGAGTCAAACCTATTGTTCATATATGCCACGGAGTCACCTAGTGCAG
Second: CATGCTAATTACATCTTAGCATATACACATTCTCCCATTGCGGAGTCACCTAGTGCAG
The binding signal of the first is higher: 40500 fluorescence intensity (a.u.) for the first, 11700 fluorescence intensity (a.u.) for the second.

First: ATTAGTTGCTGATTAACAGCCAGTGCCTGCTAAATATAGCCGGAGTCACCTAGTGCAG
Second: CGCACAAAATTATGTGATTGGGGTGCGACATAGGGAATCACGGAGTCACCTAGTGCAG
The binding signal of the first is lower: 4220 fluorescence intensity (a.u.) for the first, 16600 fluorescence intensity (a.u.) for the second.

Going from “CCAAAATTCATGCACAATTGACAATTCCTCACGTTTCGAACGGAGTCACCTAGTGCAG” to “AGTGACCCCAGATTGGCATTCATCGACACGAACGAACAGTCGGAGTCACCTAGTGCAG”, the binding signal rises from 7460 fluorescence intensity (a.u.) to 8910 fluorescence intensity (a.u.).

First: AAGCATGTGATTAGCAAAAGACGCCGTACTCTCTCTCTCACGGAGTCACCTAGTGCAG
Second: GTTCTGATTTGTTTCCTTAACAATTGCCGATCGATTTACACGGAGTCACCTAGTGCAG
The binding signal of the first is higher: 16700 fluorescence intensity (a.u.) for the first, 13300 fluorescence intensity (a.u.) for the second.

First: TTTTAAATTTAAAATATAGATTAATATAATTTTCCAAACTCGGAGTCACCTAGTGCAG
Second: GCTGAATTACGACCGCTAGATTGGGTCCAACAGGCCCATCCGGAGTCACCTAGTGCAG
The binding signal of the first is higher: 27000 fluorescence intensity (a.u.) for the first, 8130 fluorescence intensity (a.u.) for the second.

First: ATAATTACTAGCGGGCACTAATTATATACAAGGTATTGATCGGAGTCACCTAGTGCAG
Second: CATCATCATCATCAATGCAATCACTTTCGGCGGCTACTCCCGGAGTCACCTAGTGCAG
The binding signal of the first is higher: 6250 fluorescence intensity (a.u.) for the first, 6050 fluorescence intensity (a.u.) for the second.

Going from “CCTTGATGTCTTGATAGCCCATTGGTATCCATTCTTCTGTCGGAGTCACCTAGTGCAG” to “AACTTTGACTGCTGCTTAGCCCAAGTCCAAGTCTTTCTTCCGGAGTCACCTAGTGCAG”, the binding signal falls from 3670 fluorescence intensity (a.u.) to 3640 fluorescence intensity (a.u.).

Compared with “AGATAAATGTATATTCAAATTTATAGCTAACATTGGTTATCGGAGTCACCTAGTGCAG”, “TCAATAATTGACGATATGCTAACATGCTATATCAGTTATTCGGAGTCACCTAGTGCAG” is higher in binding signal: 3970 fluorescence intensity (a.u.) for the first, 37400 fluorescence intensity (a.u.) for the second.

First: ATTGAATTGACATGTAACCTTATCCTATCAAAACTTACGGCGGAGTCACCTAGTGCAG
Second: AACAAATCAAATCCTAATCATCCATCCCATCCAAATCTACCGGAGTCACCTAGTGCAG
The binding signal of the first is higher: 32500 fluorescence intensity (a.u.) for the first, 6490 fluorescence intensity (a.u.) for the second.

Going from “GGACGTGATAGATAGTGCGTTTGGCTTGTCTAGCTGTTTGCGGAGTCACCTAGTGCAG” to “CTTGATTATATGCCTTACAAGTAGGGTGTTAGACTTGTCTCGGAGTCACCTAGTGCAG”, the binding signal falls from 27100 fluorescence intensity (a.u.) to 19600 fluorescence intensity (a.u.).

Going from “TTCATGAGAATTAATTTTGATTGGATCAACTCTAAAAGTTCGGAGTCACCTAGTGCAG” to “CGTATTCTATAATTGGTGAGGCATATAACAATATTTGTATCGGAGTCACCTAGTGCAG”, the binding signal falls from 27200 fluorescence intensity (a.u.) to 5160 fluorescence intensity (a.u.).

First: CAAAATCTGTCCAAATCAATCCACGCATCGATTGTACTATCGGAGTCACCTAGTGCAG
Second: TCAGGCAATTACTACAACAATAGACAAGCGCACTTTCTGCCGGAGTCACCTAGTGCAG
The binding signal of the first is higher: 5780 fluorescence intensity (a.u.) for the first, 5420 fluorescence intensity (a.u.) for the second.

First: TCATATTGATGTTAATGAATCTGGATAGATATATATGTCTCGGAGTCACCTAGTGCAG
Second: GTGACTTTTGTTATAATAGATGGATGGGTTGTCACTGTAGCGGAGTCACCTAGTGCAG
The binding signal of the first is higher: 5290 fluorescence intensity (a.u.) for the first, 4620 fluorescence intensity (a.u.) for the second.

Going from “GCCTAATTAATCCATCATTAGCAAATGTTTACTGTAGCATCGGAGTCACCTAGTGCAG” to “ACTAAATTGGGTTGGGGTGCCTCCTCCTTCCTTTCTTTCTCGGAGTCACCTAGTGCAG”, the binding signal falls from 50500 fluorescence intensity (a.u.) to 21000 fluorescence intensity (a.u.).

Reference: paper PMC7819943, “Rice protein-binding microarrays: a tool to detect cis-acting elements near promoter regions in rice”
